Data reported in PubChem BioAssay AID1347073 (National Center for Advancing Translational Sciences (NCATS), 2019).
In all, about 45,000 compounds went through this assay and about 200 (0.44%) were called active. Roughly 7% stayed inconclusive and do not appear here. Calls follow the shape of the dose curve; as a rule, active = well fitted activation curve with a large enough effect; inconclusive = small, poorly fitted or top-dose-only effect; inactive = no such curve, though single readings can be large or run the other way. This is one part of the list.

experiment: qHTS of TDP-43 Inhibitors: NCGC Sytravon Library Screen; conditions: yeast TDP-43 toxicity rescue, BacTiter-Glo growth, 24 h; series mostly up to 46.1 µM; growth rescue (activation): at the top concentration; also: 0% is about no effect; nearly all actives have a fitted effect of over 55% in size
Outline: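 TDP-43-expressing yeast, pregrown in raffinose, seeded at OD600 0.02 in galactose medium with compound for 24 hr at 30 deg C. Growth read by BacTiter-Glo luminescence, so rescue of toxicity appears as activation.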

SMILES	growth rescue (activation)
NC(=O)C1(N2CCCCC2)CCN(C(=O)Nc2ccc(Cl)c(Cl)c2)CC1	inactive: -7.19%
Cc1noc(C)c1S(=O)(=O)N1CCC(C(=O)N2CCN(Cc3ccc4c(c3)OCO4)CC2)CC1	inactive: 2.18%
CC1Oc2ccccc2N(CC(=O)N2CCCCCC2)C1=O (configuration not stated)	inactive: -2%
Cc1cc(NC(=O)/C(C#N)=C/c2ccc(-c3cccc(C(F)(F)F)c3)o2)n(-c2ccccc2)n1	inactive: 15.9%
Cc1cc(NC(=O)Cn2nnc(-c3ccccc3N)n2)no1	inactive: -17.5%
COC(=O)Cc1ccc(OC2(C)CCN(Cc3csc4ccccc34)C2)cc1 (configuration not stated)	inactive: -4.07%
CC(=O)c1cccc(-c2ccnc3c2CC(C(=O)NCc2ccco2)O3)c1 (configuration not stated)	inactive: 7.57%
Cc1cccc(NC(=O)COC(=O)c2nn(C)c(=O)c3ccccc23)c1C	inactive: 15.8%
O=C(NNC(=O)c1cccs1)c1ccc(Br)cc1	inactive: 14.5%
Cc1ccc(NC(=O)C(C)N2C(=O)c3ccccc3C2=O)nc1 (configuration not stated)	inactive: 14.5%
Cc1ccc(C(C(=O)NC2CCCC2)N(Cc2ccccc2)C(=O)c2csnn2)o1 (configuration not stated)	inactive: -15.3%
CSCCC(NS(=O)(=O)/C=C/c1ccccc1)C(=O)O (configuration not stated)	inactive: -9.52%
O=S(=O)(Nc1nc2ccccc2nc1-[n+]1cccc(N=C([O-])c2ccc(Cl)cc2)c1)c1ccccc1	inactive: 1.35%
Cc1ccc(NC(=S)NCC(C)CSc2ccc(Cl)cc2)cc1 (configuration not stated)	inactive: 13%
O=S(=O)(Nc1c(F)cccc1F)c1ccc2c(c1)OCCO2	inactive: 4.6%
COc1ccc(Cl)cc1C(=O)NNC(=S)NC(=O)c1ccc(F)c(F)c1	inactive: -18.1%
NS(=O)(=O)c1ccc(CCNC(=O)c2ccc(C(=O)c3ccccc3)cc2)cc1	inactive: -7.61%
COc1c(C)cc(Br)cc1C(=O)Nc1ccc(C)cc1[N+](=O)[O-]	inactive: -0.87%
COc1ccc(N(C(=O)COc2cccc(C)c2)S(=O)(=O)c2ccc(C)cc2)cc1	inactive: 3.87%
N#C/C(=C\c1cn(CCOc2ccccc2F)c2ccccc12)C(=O)NCc1cccs1	inactive: 2.4%
CSc1nnc(NC(=O)c2ccc(C)c(S(=O)(=O)N3CCOCC3)c2)s1	inactive: 14.7%
CC1(C)Cc2nc3oc4c(SCC(N)=O)ncnc4c3cc2CO1	inactive: 6.99%
CCN(CC(=O)NCCN1CCOCC1)S(=O)(=O)c1ccc(F)cc1	inactive: -8.66%

SMILES	growth rescue (activation)
COc1cc(CN2CCNC(=O)C2CC(=O)NCCC2=CCCCC2)cc(OC)c1 (configuration not stated)	inactive: -13.7%
Cc1noc(C)c1C(=O)Nc1ccccc1C(=O)NCCc1ccccc1	inactive: 26.9%
COc1ccc(S(=O)(=O)N(C(=O)c2ccco2)c2cc3sc(=O)oc3c3ccccc23)cc1	inactive: -2.62%
COc1ccc(CC(NC(C)=O)C(=O)NC2CCN(C(=O)c3cccc(Cl)c3)CC2)cc1OC (configuration not stated)	inactive: 10.7%
Cc1c2cnn(CC(=O)O)c(=O)c2c(C)n1Cc1cccc(Cl)c1	inactive: -3.12%
CC(=O)Nc1cc(-c2ccc(N3CCN(C)CC3)cc2)cn2c(-c3cccc(C(C)=O)c3)cnc12	inactive: -4.5%
Cc1ccc(Cl)cc1N1CCN(C(=S)NCCc2ccccc2)CC1	inactive: 16.3%
CCCN(CCC)CCCn1c(=O)[nH]c2ccccc21	inactive: 5.89%
N#CC1=C(N)Nc2nc3ccccc3n2C1c1ccc(F)cc1 (configuration not stated)	inactive: -19.2%
CCN(CC)S(=O)(=O)c1cc(C(=O)OCC(=O)Nc2c(F)cccc2F)ccc1F	inactive: 0.213%
S=c1[nH]nc(-c2ccncc2)n1/N=C/c1ccccc1	inactive: 18%
O=C(Nc1ccc(F)c([N+](=O)[O-])c1)C(=O)c1c(O)[nH]c2ccccc12	inactive: -24.5%
O=C(NCc1cc(Cl)cc(Cl)c1)c1ccc2nc([C@H]3C[C@H](O)[C@@H](CO)O3)[nH]c2c1	inactive: -2.53%
C=C(C)CSc1[nH]c(=O)cc(C)c1C#N	inactive: 1.69%
COc1ccc(C(O)c2ncc(-c3ccccc3C)[nH]2)cc1 (configuration not stated)	inactive: 5.61%
Cc1nc2ccc(C(=O)NCCCn3ccnc3)cn2c1N(C)CC1CCCCC1	inactive: -2.89%
COc1ccc(C(=O)NC(CCSC)C(=O)N2CCCCCC2)cc1 (configuration not stated)	inactive: 3.68%
CC(C)(C)c1ccc(C(O)c2ncc(-c3ccccc3F)[nH]2)cc1 (configuration not stated)	inactive: 4.16%
CCN(CC)CCOC(=O)c1ccc(NC(=O)CNC(=O)c2ccccc2)cc1	inactive: -1.84%
CCCn1nc(C(=O)NNC(=O)c2ccc(OC(F)F)cc2)c2ccccc2c1=O	inactive: 2.14%
COc1cc(/C=N/Nc2nc3ccccc3s2)ccc1O	inactive: 24.9%
CCc1nnc(NC(=O)[C@@H](NC(=O)c2cccc(C)c2)C(C)C)s1	inactive: 4.56%
O=C(N/N=C/c1ccc2c(c1)OCCO2)c1ccncc1	inactive: 9.26%

SMILES	growth rescue (activation)
O=C(CCNS(=O)(=O)c1ccc(Br)s1)NCc1ccc2c(c1)OCO2	inactive: 14.2%
Cc1c(Cl)cccc1NC(=O)Cc1ccc([N+](=O)[O-])cc1	inactive: 8.3%
COc1ccccc1NS(=O)(=O)c1ccc(C)c(NC(=O)NCCCl)c1	inactive: -0.337%
Cc1cc(C)n2c(SCCO)nnc2n1	inactive: 6.54%
OCCC1CN(CCCc2ccccc2)CCN1Cc1ccccc1 (configuration not stated)	inactive: -2.48%
O=C(NCC1CCCO1)C(c1cccs1)N(Cc1cccs1)C(=O)c1ccc(-c2ccccc2)[nH]1 (configuration not stated)	inactive: 17.4%
Cc1ccc2nc3c(cc(C(=O)NCC4CCCO4)c(=N)n3CC3CCCO3)c(=O)n2c1 (configuration not stated)	inactive: 6.25%
COc1cc(OC)cc(C(=O)OCC(=O)Nc2cccc(C(C)=O)c2)c1	inactive: 4.39%
O=C(O)CCC(=O)NN1C(=O)c2ccccc2NC1c1ccc(F)cc1 (configuration not stated)	inactive: 27.9%
CC(=O)NCCNC(=O)C1Cc2c(-c3ccc(Cl)cc3)ccnc2O1 (configuration not stated)	inactive: 9.24%
Cc1ccc(Nc2nc(N)c([N+](=O)[O-])c(N3CCOCC3)n2)cc1	inactive: 13.8%
CCN(CC)S(=O)(=O)c1ccc(NCC2COc3ccccc3O2)c([N+](=O)[O-])c1 (configuration not stated)	inactive: 17.2%
CC(C)c1ccc(NCCC(=O)c2ccc(Br)cc2)cc1	inactive: 16.2%
O=C(CN1C(=O)NC2(CCCCCC2)C1=O)Nc1ccc2c(c1)CCC2	inactive: 6.91%
CC(=O)Nc1ccc(C(=O)COC(=O)Cc2ccsc2)c(F)c1	inactive: 8.65%
CC(NC(=O)N1CCN(c2ccccc2F)CC1)c1ccc(F)c(F)c1 (configuration not stated)	inactive: 6.06%
O=C(O)c1cnc(-c2ccccc2)nc1-c1ccccc1	inactive: -1.37%
O=C(Cn1nc(Cl)nc1Cl)c1ccccc1	inactive: 7.88%
O=C(NC1CC1)c1cc(=S)[nH]c2ccccc12	inactive: 21.7%
CC/C(=N\NC(=O)CNC(=O)/C=C/c1ccc(OC)cc1)c1ccccc1	inactive: -0.776%
O=C(Nc1ccc2c(c1)OCO2)N1CCN(c2ccc(F)cc2)CC1	inactive: 18.9%
